Laboratory results: paper PMC7476737, “Targeting 14-3-3ε-CDC25A interactions to trigger apoptotic cell death in skin cancer” (Oncotarget, 2020)
No constants are given. Whether binding was seen depends on the method and setting. In cells and extracts the contact can be indirect. Some entries that bind do so weakly or less than the wild type.

Sequences of proteins named here, by UniProt entry; tags and fusion partners are left off.
UniProt P62258: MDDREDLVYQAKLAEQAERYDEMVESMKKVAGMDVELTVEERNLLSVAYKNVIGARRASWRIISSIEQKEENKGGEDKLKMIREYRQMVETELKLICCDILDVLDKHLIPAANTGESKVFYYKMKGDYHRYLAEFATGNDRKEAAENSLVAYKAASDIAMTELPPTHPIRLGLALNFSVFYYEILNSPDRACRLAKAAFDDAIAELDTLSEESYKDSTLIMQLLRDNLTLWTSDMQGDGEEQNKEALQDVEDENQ
UniProt P63104: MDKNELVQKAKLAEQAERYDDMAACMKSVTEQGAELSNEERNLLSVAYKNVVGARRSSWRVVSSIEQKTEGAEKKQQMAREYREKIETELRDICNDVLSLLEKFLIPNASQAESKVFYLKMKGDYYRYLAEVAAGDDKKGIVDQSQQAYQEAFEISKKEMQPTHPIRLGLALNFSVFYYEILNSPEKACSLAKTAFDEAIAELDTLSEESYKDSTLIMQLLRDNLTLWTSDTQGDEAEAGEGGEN
UniProt P31946: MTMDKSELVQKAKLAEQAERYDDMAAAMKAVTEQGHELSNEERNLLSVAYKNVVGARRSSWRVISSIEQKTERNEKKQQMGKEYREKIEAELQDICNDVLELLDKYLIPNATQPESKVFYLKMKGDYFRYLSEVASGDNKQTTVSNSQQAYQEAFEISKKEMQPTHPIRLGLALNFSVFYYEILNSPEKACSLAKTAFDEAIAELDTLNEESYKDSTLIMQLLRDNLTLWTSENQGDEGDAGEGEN

T1: CDC25A (human (endogenous in SCC12B.2 and nHEK)) (UniProt P30304)
T1 sequence: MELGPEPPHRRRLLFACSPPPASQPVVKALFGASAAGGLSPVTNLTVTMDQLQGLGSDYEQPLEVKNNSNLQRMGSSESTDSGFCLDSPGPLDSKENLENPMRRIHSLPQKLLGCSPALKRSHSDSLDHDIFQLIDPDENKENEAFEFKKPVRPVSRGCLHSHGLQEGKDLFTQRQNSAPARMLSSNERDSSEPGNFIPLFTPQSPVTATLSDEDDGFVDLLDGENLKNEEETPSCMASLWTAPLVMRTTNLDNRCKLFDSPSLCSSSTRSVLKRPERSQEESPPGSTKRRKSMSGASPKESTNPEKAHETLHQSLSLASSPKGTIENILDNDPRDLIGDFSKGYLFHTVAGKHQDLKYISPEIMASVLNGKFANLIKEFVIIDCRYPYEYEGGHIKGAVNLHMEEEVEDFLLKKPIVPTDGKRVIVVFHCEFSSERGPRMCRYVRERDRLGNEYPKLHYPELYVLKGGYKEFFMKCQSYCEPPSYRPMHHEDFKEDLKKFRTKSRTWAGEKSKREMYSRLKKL


What was measured:
[1] = biological target: T1, CDC25A (human (endogenous in SCC12B.2 and nHEK)); experiment: co-IP; anti-CDC25A antibody on Dynabeads Protein G, 100 mg of SCC12B.2 cell lysate, 4°C 30 min, IP buffer with 100 mM NaCl, 2 mM DTT, 1 mM MgCl2; immunoblot for 14-3-3 family members
[2] = biological target: T1, CDC25A (human (endogenous in SCC12B.2 and nHEK)); experiment: condition: only in nHEK cells (normal keratinocytes); co-IP; anti-CDC25A antibody on Dynabeads Protein G, 100 mg of nHEK (normal keratinocyte) cell lysate; immunoblot for 14-3-3 family members
[3] = biological target: T1, CDC25A (human (endogenous in SCC12B.2 and nHEK)); experiment: co-IP; anti-CDC25A antibody on Dynabeads Protein G, 100 mg of nHEK (normal keratinocyte) cell lysate; immunoblot for 14-3-3 family members
[4] = biological target: 14-3-3ε (human (endogenous in SCC12B.2 and nHEK)) (UniProt P62258); experiment: co-IP; anti-14-3-3ε antibody on Dynabeads Protein G, 100 mg of SCC12B.2 cell lysate, 4°C 30 min; immunoblot for CDC25A
[5] = biological target: 14-3-3ε (human (endogenous in SCC12B.2 and nHEK)) (UniProt P62258); experiment: co-IP; anti-14-3-3ε antibody on Dynabeads Protein G; SCC12B.2 cells treated with vehicle (20 mM Tris, pH 7.5), pS (30 μM) or pT (20 μM) for 48 h in Opti-MEM before lysis; immunoblot for CDC25A
[6] = biological target: 14-3-3ε (human (endogenous in SCC12B.2 and nHEK)) (UniProt P62258); experiment: co-IP; synthetic peptide (pS 30 μM or pT 20 μM) added to living SCC12B.2 cells for 48 h; read-out is the loss of CDC25A from the 14-3-3ε immunoprecipitate; only the binder purified

Molecule	binding [1]	binding [2]	further results
14-3-3ε (from UniProt P62258 1-255)	binds	no binding	
14-3-3ζ (from UniProt P63104 1-245)	binds	no binding	
14-3-3β (from UniProt P31946 1-246)	no binding		binding [3]: no binding
14-3-3γ (protein, UniProt P61981 1-247) MVDREQLVQKARLAEQAERYDDMAAAMKNVTELNEPLSNEERNLLSVAYKNVVGARRSSWRVISSIEQKTSADGNEKKIEMVRAYREKIEKELEAVCQDVLSLLDNYLIKNCSETQYESKVFYLKMKGDYYRYLAEVATGEKRATVVESSEKAYSEAHEISKEHMQPTHPIRLGLALNYSVFYYEIQNAPEQACHLAKTAFDDAIAELDTLNEDSYKDSTLIMQLLRDNLTLWTSDQQDDDGGEGNN	binds	no binding	
CDC25A (protein, UniProt P30304 1-524) MELGPEPPHRRRLLFACSPPPASQPVVKALFGASAAGGLSPVTNLTVTMDQLQGLGSDYEQPLEVKNNSNLQRMGSSESTDSGFCLDSPGPLDSKENLENPMRRIHSLPQKLLGCSPALKRSHSDSLDHDIFQLIDPDENKENEAFEFKKPVRPVSRGCLHSHGLQEGKDLFTQRQNSAPARMLSSNERDSSEPGNFIPLFTPQSPVTATLSDEDDGFVDLLDGENLKNEEETPSCMASLWTAPLVMRTTNLDNRCKLFDSPSLCSSSTRSVLKRPERSQEESPPGSTKRRKSMSGASPKESTNPEKAHETLHQSLSLASSPKGTIENILDNDPRDLIGDFSKGYLFHTVAGKHQDLKYISPEIMASVLNGKFANLIKEFVIIDCRYPYEYEGGHIKGAVNLHMEEEVEDFLLKKPIVPTDGKRVIVVFHCEFSSERGPRMCRYVRERDRLGNEYPKLHYPELYVLKGGYKEFFMKCQSYCEPPSYRPMHHEDFKEDLKKFRTKSRTWAGEKSKREMYSRLKKL			binding [4]: binds; binding [5]: binds
TQRQNSAPARMLSS (peptide, UniProt P30304 173-186, phosphoserine at 178; N-terminal acetyl; C-terminal amide) [pS peptide (173-186 fragment of human CDC25A with phospho-Ser178)]			binding [6]: binds
FRTKSRTWAGEKSKR (peptide, UniProt P30304 501-515, phosphothreonine at 507; N-terminal acetyl; C-terminal amide) [pT peptide (501-515 fragment of human CDC25A with phospho-Thr507)]			binding [6]: binds
14-3-3θ (protein, UniProt P27348 1-245) MEKTELIQKAKLAEQAERYDDMATCMKAVTEQGAELSNEERNLLSVAYKNVVGGRRSAWRVISSIEQKTDTSDKKLQLIKDYREKVESELRSICTTVLELLDKYLIANATNPESKVFYLKMKGDYFRYLAEVACGDDRKQTIDNSQGAYQEAFDISKKEMQPTHPIRLGLALNFSVFYYEILNNPELACTLAKTAFDEAIAELDTLNEDSYKDSTLIMQLLRDNLTLWTSDSAGEECDAAEGAEN	no binding		binding [3]: no binding
